Assay results reported in US5589568A (priority 1994, dated 1996).
Like-named read-outs stand apart in the source and are kept apart here. At least one peptide structure holds a part that was inferred or is arguable (an end, a ring closure or a residue). Where a SMILES comes first, the peptide text is derived from it. The star is where a group is joined. Dodecyl = CCCCCCCCCCCC*; X1 = CCCCCCCCCCCCCCCC*

Columns and labels:
[1] = target: T1, Go (Bos taurus, UniProt P08239); assay: steady state GTPase activity of Go in phospholipid vesicles; assay type: biochemical, bovine
T1 construct: proteins were extracted from bovine cerebral cortical membranes; from tissue; host or cells: bovine brain (cerebral cortical membranes)
T1 sequence (P08239 2-354 limits assumed): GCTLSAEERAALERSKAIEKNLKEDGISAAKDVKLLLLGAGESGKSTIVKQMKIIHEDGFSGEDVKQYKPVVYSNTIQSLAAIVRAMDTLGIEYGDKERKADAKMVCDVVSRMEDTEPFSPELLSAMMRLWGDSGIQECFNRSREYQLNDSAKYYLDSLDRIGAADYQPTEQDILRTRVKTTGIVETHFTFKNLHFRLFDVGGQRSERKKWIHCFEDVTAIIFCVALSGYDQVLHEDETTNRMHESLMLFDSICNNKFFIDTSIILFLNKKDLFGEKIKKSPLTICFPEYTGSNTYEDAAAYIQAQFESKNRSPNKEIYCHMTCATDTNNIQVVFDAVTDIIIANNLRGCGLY
T1 sequence (P62871 2-340 partner limits assumed): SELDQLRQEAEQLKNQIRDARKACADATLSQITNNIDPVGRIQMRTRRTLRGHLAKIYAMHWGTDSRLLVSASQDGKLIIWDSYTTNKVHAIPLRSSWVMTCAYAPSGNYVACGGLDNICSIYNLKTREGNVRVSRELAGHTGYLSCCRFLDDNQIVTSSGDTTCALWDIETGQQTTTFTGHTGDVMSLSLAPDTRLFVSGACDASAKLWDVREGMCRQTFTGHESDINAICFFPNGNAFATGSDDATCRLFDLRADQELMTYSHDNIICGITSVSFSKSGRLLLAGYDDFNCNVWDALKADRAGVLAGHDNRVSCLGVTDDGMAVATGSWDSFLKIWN
T1 sequence (P63212 2-68 partner limits assumed): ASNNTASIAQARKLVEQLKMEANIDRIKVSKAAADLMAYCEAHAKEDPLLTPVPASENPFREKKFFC

[2] = test system: Gi; assay: steady state GTPase activity of Gi in phospholipid vesicles; assay type: biochemical, rabbit
[3] = target: Gs (Homo sapiens, UniProt P63092); assay: steady state GTPase activity of Gs; assay type: biochemical; details: for EC50: read-out: Gs af. (apparent affinity, estimated by EC50 of GTPase activity)
Gs, sequence (P63092 whole entry): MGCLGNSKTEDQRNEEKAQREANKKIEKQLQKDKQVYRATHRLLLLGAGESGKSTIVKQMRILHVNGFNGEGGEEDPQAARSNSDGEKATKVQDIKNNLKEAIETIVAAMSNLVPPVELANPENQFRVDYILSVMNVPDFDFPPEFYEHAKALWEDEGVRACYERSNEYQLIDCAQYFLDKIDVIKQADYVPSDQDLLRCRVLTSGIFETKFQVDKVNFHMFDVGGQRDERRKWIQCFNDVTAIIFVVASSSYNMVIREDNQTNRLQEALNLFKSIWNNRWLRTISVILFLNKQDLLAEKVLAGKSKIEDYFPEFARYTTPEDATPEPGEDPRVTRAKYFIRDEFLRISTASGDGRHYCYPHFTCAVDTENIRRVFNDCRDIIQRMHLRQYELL
Experimental: Methods for the assay of steady state GTP hydrolysis and GTPγS binding have been described previously by Higashijima, 1987, and Ferguson, 1986, and incorporated herein by reference. Unless noted otherwise, assays of steady state GTP hydrolysis and of the binding and dissociation of guanine nucleotides were carried out in the buffer described previously, but without detergent and with 1.1 mM MgSO4 and the nucleotide specified in the text. When necessary, the concentration of free Mg^2+ was adjusted using EDTA buffers as described previously by Higashijima, 1987, and incorporated herein by reference.
The data set forth in the following tables represent data generated by the inventors employing the steady state GTP hydrolysis, expressed as molar turnover numbers, are described herein under the "Assay" section of the Experimental Procedures in Example 1. The data has been classified according to the criteria outlined below and the effects of each peptide and modified variant on Go, Gi, and Gs have been tabulated. Table III below sets forth data generated for various mastoparan analogues designed by the inventors, in comparison with the various naturally-occurring mastoparans (e.g., MP, MP-A and MP-T). Table IV sets forth similar data generated for various receptor-based peptides designed by the inventors based on a consideration of various G-protein linked receptors.
Apparent affinity (af.) and apparent efficacy (ef.) were estimated by EC50 and maximum turnover number of GTPase activity.

[4] = Table VI, receptor-based peptides
[5] = read-out: Go af. (apparent affinity, estimated by EC50 of GTPase activity), Table VI, receptor-based peptides
[6] = Table VI, receptor-based peptides, read-out: Gi af. (apparent affinity, estimated by EC50 of GTPase activity)
[7] = Table IV, read-out: G1 af. (apparent affinity, estimated by EC50 of GTPase activity)

SMILES	Go ef. (apparent efficacy, maximum turnover number of GTPase activity) [1, 4]	EC50 [1, 5] [µM]	Gi ef. (apparent efficacy, maximum turnover number of GTPase activity) [2, 4]	EC50 [2, 6] [µM]	Gs ef. (apparent efficacy, maximum turnover number of GTPase activity) [3, 4]	EC50 [3, 4] [µM]	Goo ef. (apparent efficacy, maximum turnover number of GTPase activity) ([1]; Table IV)	EC50 ([1]; read-out: Goo af. (apparent affinity, estimated by EC50 of GTPase activity), Table IV) [µM]	G1 ef. (apparent efficacy, maximum turnover number of GTPase activity) ([2]; Table IV)	EC50 [2, 7] [µM]	Gs ef. (apparent efficacy, maximum turnover number of GTPase activity) ([3]; Table IV)	EC50 ([3]; Table IV) [µM]
CCCCCCCCCCCCSC[C@H](N)C(=O)N[C@H](C(=O)N[C@@H](Cc1ccc(O)cc1)C(=O)N[C@H](C(=O)N[C@H](C(=O)N[C@@H](C)C(=O)N[C@@H](CCCCN)C(=O)N[C@@H](CCCNC(=N)N)C(=O)N[C@@H](CCC(=O)O)C(=O)N[C@@H](CO)C(=O)N[C@@H](CCCNC(=N)N)C(=O)NCC(=O)N[C@@H](CC(C)C)C(=O)N[C@@H](CCCCN)C(=O)N[C@@H](CO)C(=O)NCC(=O)N[C@@H](CC(C)C)C(=O)N[C@@H](CCCCN)C(=O)N[C@H](C(=O)N[C@@H](CC(=O)O)C(=O)N[C@H](C(=O)N[C@@H](CC(C)C)C(N)=O)[C@@H](C)CC)[C@@H](C)O)C(C)C)C(C)C)C(C)C [C12-ER46] (H-C(Dodecyl)VYVVAKRESRGLKSGLKTDIL-NH2)	F (Fair (F): 2-5 fold)	30 to 100	G (Good (G): 5-10 fold)	10 to 30	F (Fair (F): 2-5 fold)	30 to 100						
CCCCCCCCCCCCSC[C@H](N)C(=O)N[C@H](C(=O)N[C@@H](Cc1ccc(O)cc1)C(=O)N[C@H](C(=O)N[C@H](C(=O)N[C@@H](C)C(=O)N[C@@H](CCCCN)C(=O)N[C@@H](CCCNC(=N)N)C(=O)N[C@@H](CCC(=O)O)C(=O)N[C@@H](CO)C(=O)N[C@@H](CCCNC(=N)N)C(=O)NCC(=O)N[C@@H](CC(C)C)C(=O)N[C@@H](CCCCN)C(=O)N[C@H](C(=O)N[C@@H](CC(C)C)C(N)=O)[C@@H](C)CC)C(C)C)C(C)C)C(C)C [C12-ER47] (H-C(Dodecyl)VYVVAKRESRGLKIL-NH2)	P (Poor (P): less than 2 fold)	> 100	P (Poor (P): less than 2 fold)	10 to 30	F (Fair (F): 2-5 fold)	30 to 100						
CCCCCCCCCCCCCCCCSC[C@H](N)C(=O)N[C@@H](CC(N)=O)C(=O)N[C@@H](Cc1ccc(O)cc1)C(=O)N[C@@H](CCCCN)C(=O)N[C@@H](C)C(=O)N[C@@H](CC(C)C)C(=O)N[C@@H](C)C(=O)N[C@@H](C)C(=O)N[C@@H](CC(C)C)C(=O)N[C@@H](C)C(=O)N[C@@H](CCCCN)C(=O)N[C@@H](C)C(=O)N[C@@H](CC(C)C)C(=O)N[C@@H](CC(C)C)C(N)=O [C16-ER16] (H-C(X1)NYKALAALAKALL-NH2)							E (Excellent (E): 30-10 fold)	< 3	S (Super (S): more than 30-fold)	< 3	F (Fair (F): 2-5 fold)	3 to 10
CC[C@H](C)[C@H](N)C(=O)N[C@@H](CC(N)=O)C(=O)N[C@@H](Cc1ccc(O)cc1)C(=O)N[C@@H](CCCCN)C(=O)N[C@@H](C)C(=O)N[C@@H](CC(C)C)C(=O)N[C@@H](C)C(=O)N[C@@H](C)C(=O)N[C@@H](CC(C)C)C(=O)N[C@@H](C)C(=O)N[C@@H](CCCCN)C(=O)N[C@@H](CCCCN)C(=O)N[C@H](C(=O)N[C@@H](CC(C)C)C(N)=O)[C@@H](C)CC [ER13]							E (Excellent (E): 30-10 fold)		E (Excellent (E): 30-10 fold)	10 to 30	F (Fair (F): 2-5 fold)	
CC[C@H](C)[C@H](N)C(=O)N[C@@H](CC(N)=O)C(=O)N[C@@H](CC(C)C)C(=O)N[C@@H](CCCCN)C(=O)N[C@@H](C)C(=O)N[C@@H](CC(C)C)C(=O)N[C@@H](C)C(=O)N[C@@H](C)C(=O)N[C@@H](CC(C)C)C(=O)N[C@@H](C)C(=O)N[C@@H](CCCCN)C(=O)N[C@@H](CCCCN)C(=O)N[C@@H](CC(C)C)C(=O)N[C@@H](CC(C)C)C(N)=O [MAS03]							E (Excellent (E): 30-10 fold)		E (Excellent (E): 30-10 fold)	10 to 30	F (Fair (F): 2-5 fold)	
